Source: publication PMC9911399, “Two distinct binding modes provide the RNA-binding protein RbFox with extraordinary sequence specificity”
Changes are numbered by the printed parent chain; changes in the protein carry UniProt numbers. The list shows a part of the results.

T1: RBFOX1 RRM (Homo sapiens, UniProt Q9NWB1 109-208)
T1 sequence: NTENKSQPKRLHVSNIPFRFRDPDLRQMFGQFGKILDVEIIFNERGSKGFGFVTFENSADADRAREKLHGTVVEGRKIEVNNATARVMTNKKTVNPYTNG

B1: CAGAUAG (DNA:RNA)
RNA: GGGAGACCGGAAUUCAGAUUGUCCCAGAUAGUUAAAUCCCGUCGUAGCCACCA
DNA 1: CAATCTGAATTCCGGTCTCCC
DNA 2: TGGTGGCTACGACGGGATT
B2: GCAACGG (DNA:RNA)
RNA: B1 RNA with C25G, A26C, G27A, U29C, A30G
DNA 1: CAATCTGAATTCCGGTCTCCC
DNA 2: TGGTGGCTACGACGGGATT
B3: AGUAUGG (DNA:RNA)
RNA: B1 RNA with C25A, A26G, G27U, A30G
DNA 1: CAATCTGAATTCCGGTCTCCC
DNA 2: TGGTGGCTACGACGGGATT
B4: CCAUGCA (DNA:RNA)
RNA: B1 RNA with A26C, G27A, A28U, U29G, A30C, G31A
DNA 1: CAATCTGAATTCCGGTCTCCC
DNA 2: TGGTGGCTACGACGGGATT
B5: GCUCCAU (DNA:RNA)
RNA: B1 RNA with C25G, A26C, G27U, A28C, U29C, G31U
DNA 1: CAATCTGAATTCCGGTCTCCC
DNA 2: TGGTGGCTACGACGGGATT
B6: GGAUGAC (DNA:RNA)
RNA: B1 RNA with C25G, A26G, G27A, A28U, U29G, G31C
DNA 1: CAATCTGAATTCCGGTCTCCC
DNA 2: TGGTGGCTACGACGGGATT
B7: CUAAUCU (DNA:RNA)
RNA: B1 RNA with A26U, G27A, A30C, G31U
DNA 1: CAATCTGAATTCCGGTCTCCC
DNA 2: TGGTGGCTACGACGGGATT
B8: GUCUCAG (DNA:RNA)
RNA: B1 RNA with C25G, A26U, G27C, A28U, U29C
DNA 1: CAATCTGAATTCCGGTCTCCC
DNA 2: TGGTGGCTACGACGGGATT
B9: GAGCAAA (DNA:RNA)
RNA: B1 RNA with C25G, A28C, U29A, G31A
DNA 1: CAATCTGAATTCCGGTCTCCC
DNA 2: TGGTGGCTACGACGGGATT

What follows are binders tested against T1, RBFOX1 RRM (assay: EMSA; HiTS-Eq, 1 nM pool, 10 min; buffer printed only for the single-RNA assays: 10 mM Tris pH 7.5, 150 mM NaCl, 3.4 mM EDTA, 0.001% NP-40, 30 C). Conditions: tags: His6 N-terminal (pET28a); label: 5' 32P.
Method in brief: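 Purified RbFox RRM (wild type or mutant) was equilibrated for 10 min in 50 µL with 1 nM of a 5′-radiolabelled pool of RNA with 7 randomized nucleotides, its flanks annealed to DNA oligonucleotides, across increasing protein concentrations. Free RNA was separated by 8% native PAGE, excised, reverse-transcribed, PCR-barcoded and sequenced on an Illumina HiSeq 2500. Relative association constants came from read-count changes of each variant against the control reaction, normalised to the cognate motif.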

Binder | binding signal
B1 | 0.0109 KA relative to UGCAUGU
B2 | 0.014 KA relative to UGCAUGU
B3 | 0.00967 KA relative to UGCAUGU
B4 | 0.00814 KA relative to UGCAUGU
B5 | 0.00701 KA relative to UGCAUGU
B6 | 0.015 KA relative to UGCAUGU
B7 | 0.00336 KA relative to UGCAUGU
B8 | 0.0141 KA relative to UGCAUGU
B9 | 0.00616 KA relative to UGCAUGU
